The structures appear in SMILES notation. About 14,000 (4.5%) of roughly 310,000 compounds showed an effect of 50% or more. Effects have a minus sign here. The list shows a part of the results.
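Also: peak tail current of the secondary pulse compared with the same well before compound.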

The assay deals with human ether-à-go-go-related gene (hERG) potassium channel (human, UniProt Q12809). Put plainly: primary screen, population patch clamp on CHO cells stably expressing hERG.
Sequence of human ether-à-go-go-related gene (hERG) potassium channel (Q12809 whole entry, looked up): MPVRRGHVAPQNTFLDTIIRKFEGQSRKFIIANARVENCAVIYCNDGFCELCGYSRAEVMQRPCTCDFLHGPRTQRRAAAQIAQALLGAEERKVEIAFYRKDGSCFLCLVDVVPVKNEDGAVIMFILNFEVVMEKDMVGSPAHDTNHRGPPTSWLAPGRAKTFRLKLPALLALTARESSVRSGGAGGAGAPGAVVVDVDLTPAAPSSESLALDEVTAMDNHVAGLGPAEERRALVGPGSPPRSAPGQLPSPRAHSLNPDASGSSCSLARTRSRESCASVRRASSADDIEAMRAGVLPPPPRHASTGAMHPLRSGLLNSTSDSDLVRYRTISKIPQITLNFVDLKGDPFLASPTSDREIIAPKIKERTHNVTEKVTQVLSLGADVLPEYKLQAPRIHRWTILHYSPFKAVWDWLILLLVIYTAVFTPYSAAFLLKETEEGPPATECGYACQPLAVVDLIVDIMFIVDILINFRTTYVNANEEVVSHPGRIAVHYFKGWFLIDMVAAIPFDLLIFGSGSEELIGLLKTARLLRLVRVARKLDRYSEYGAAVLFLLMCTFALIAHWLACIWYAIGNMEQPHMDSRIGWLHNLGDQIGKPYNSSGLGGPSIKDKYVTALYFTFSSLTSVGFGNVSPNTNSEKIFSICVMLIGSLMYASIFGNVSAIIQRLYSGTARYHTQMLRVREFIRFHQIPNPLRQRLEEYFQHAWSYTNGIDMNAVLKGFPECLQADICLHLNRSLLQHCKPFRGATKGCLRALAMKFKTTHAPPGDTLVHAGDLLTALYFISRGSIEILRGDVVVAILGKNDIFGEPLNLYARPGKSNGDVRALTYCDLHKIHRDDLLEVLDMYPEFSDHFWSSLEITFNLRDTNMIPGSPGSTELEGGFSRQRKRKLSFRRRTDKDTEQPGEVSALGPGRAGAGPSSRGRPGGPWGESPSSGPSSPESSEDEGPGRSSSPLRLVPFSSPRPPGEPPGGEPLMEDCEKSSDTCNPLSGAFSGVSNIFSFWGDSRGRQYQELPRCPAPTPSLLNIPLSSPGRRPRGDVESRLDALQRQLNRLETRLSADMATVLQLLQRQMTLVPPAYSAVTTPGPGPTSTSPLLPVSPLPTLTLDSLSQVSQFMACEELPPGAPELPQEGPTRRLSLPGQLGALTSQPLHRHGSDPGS
Take `Cc1cc2nc(/C(C#N)=C/c3ccncc3)[nH]c2cc1C`: the “hERG current change (%, negative = inhibition) at 10uM” value was -16.9%.
Turning to `CC(=O)NC12CC3CC(C1)CC(C(=O)Oc1ccc(N(C)S(=O)(=O)c4cc(C)ccc4C)cc1)(C3)C2`, the “hERG current change (%, negative = inhibition) at 10uM” value was 10.5%.
As for `COc1ccc2c(c1)CCc1c(C(=O)Nc3ccn(Cc4ccc(C)cc4)n3)noc1-2`, the “hERG current change (%, negative = inhibition) at 10uM” value is listed as 11.4%.
Turning to `Cc1nc(N2CCCCC2)c2c(-c3cccs3)csc2n1`, the “hERG current change (%, negative = inhibition) at 10uM” value was found to be 4.13%.
As for `O=C1CCC(C(=O)N(Cc2ccco2)C2(C(=O)NC3CCCC3)CCCCC2)N1` (stereo not drawn), the “hERG current change (%, negative = inhibition) at 10uM” value stood at 13.4%.
Regarding `COCCOC(=O)C1=C(C)OC(N)=C(C(=O)OC)C12C(=O)Nc1ccccc12` (stereo not drawn), the “hERG current change (%, negative = inhibition) at 10uM” value was -1.39%.
For the molecule `CN1C(C)(C)CC(NC(=O)c2ccco2)CC1(C)C`, the “hERG current change (%, negative = inhibition) at 10uM” value is given as 4.08%.
For `c1ccc(OCCCn2nnc(-c3ccc(N4CCOCC4)cc3)n2)cc1` the value was 15.4%; for `CC(C)[C@H](NC(=O)N1CCn2c1nc1ccccc12)C(=O)N[C@H](C(=O)O)c1ccccc1`, 11.9%; for `Cc1ccc2c(c1)N(CCCC(=O)NCC1COc3ccccc3O1)C(=O)CO2` (stereo not drawn), -12.7%.
As to `COc1cc(C(=O)N2CCN(c3cc(Cl)ccc3Cl)CC2)cc(OC)c1OC`, the “hERG current change (%, negative = inhibition) at 10uM” value was 6.44%.
Then `NC(=O)c1cccc(C(N)=O)n1`, with 8.15%; and `Cc1ccc(S(=O)(=O)n2nc(OC(=O)c3ccco3)cc2N)cc1`, with 12.4%; and `CC(=O)N1CC(C)Oc2ccc(S(=O)(=O)NC(CC(=O)O)c3ccc(C)cc3C)cc21` (stereo not drawn), with 7.28%.
For `O=C(Cc1ccc(Cl)cc1)NNC(=S)NC(=O)c1cccs1` the value was 16%.
Then `Cc1ccccc1OCC(=O)NCc1ccccc1`, with 2.05%.
On to `Cc1cc(C)c2nc(SCC(=O)Nc3ccccc3N3CCOCC3)c(C#N)cc2c1`, for which the “hERG current change (%, negative = inhibition) at 10uM” value is reported as -14.4%.
For the molecule `Cc1ccc(C(=O)N/C(=C/c2ccc(-c3cccc([N+](=O)[O-])c3)o2)C(=O)NCCCN(C)C)cc1`, the “hERG current change (%, negative = inhibition) at 10uM” value is on record as -80%.
Turning to `Cc1ccc(C(=O)NCc2cccs2)cc1S(=O)(=O)N1CCCCC1`, the “hERG current change (%, negative = inhibition) at 10uM” value is -10.6%.
Consider `Cc1cc(C)nc(N/N=C/c2c[nH]c3ccccc23)n1`, for which the “hERG current change (%, negative = inhibition) at 10uM” value amounted to 17%.
For `CCCn1cc(C(=O)O)cn1` the value was -9.59%; for `O=c1[nH]c(=S)n(Cc2ccc(F)cc2)c(O)c1/C=N/N1CCCCCC1`, -46.9%.
Consider `CN(C)S(=O)(=O)c1ccc(NC(=O)C2CC(=O)N(Cc3ccccc3Cl)C2)cc1` (stereo not drawn), for which the “hERG current change (%, negative = inhibition) at 10uM” value is reported as -0.379%.
With `c1csc(-c2noc(CN3CCN4CCCC4C3)n2)c1` (stereo not drawn), the “hERG current change (%, negative = inhibition) at 10uM” value was -0.736%.

The values above are taken from publication PMC4336329 (PLoS ONE, 2015).
